Measurements from the supplement of paper PMC4967469.
By IC50 is meant the dose at which the fit gives 50% viability; a fit beyond the top or the lowest dose is shown as a bound at that dose. AUC is the area under the same curve over the 256-fold range up to the top dose, as a fraction; the more sensitive the line, the further below 1. An inferred top dose was calculated from the reported fits.

Columns and labels:
Assay in all cases: Viability of human cancer cell lines after 72 h of drug (GDSC screen)
CAY10603 = compound: CC(C)(C)OC(=O)Nc1ccc(-c2cc(C(=O)NCCCCCCC(=O)NO)no2)cc1 [CAY10603]; settings: top dose 20 µM; top dose inferred
Description: (§1)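 Human cancer cell lines in 384-well plates, medium with 10% serum, drug for 72 h over a 256-fold dose range (nine 2-fold or five 4-fold steps up to the top dose). Adherent lines were fixed and stained with the nucleic acid dye Syto60, suspension lines read with resazurin; signal relative to control wells, capped at 0 and 100%. One two-parameter sigmoid per drug and line, fitted in a mixed model over all curves with the slope shared within a line.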

CH5424802 = compound: CCc1cc2c(cc1N1CCC(N3CCOCC3)CC1)C(C)(C)c1[nH]c3cc(C#N)ccc3c1C2=O [CH5424802]; settings: top dose 5.12 µM; top dose inferred
Description: as §1

ACHP (KIN001-260) = compound: N#Cc1c(C2CCNCC2)cc(-c2c(O)cccc2OCC2CC2)nc1N [ACHP (KIN001-260)]; settings: top dose 20 µM; top dose inferred
Description: as §1

| Cell Line | AUC (CAY10603) | IC50 (CAY10603) | AUC (CH5424802) | IC50 (CH5424802) | AUC (ACHP (KIN001-260)) | IC50 (ACHP (KIN001-260)) |
| --- | --- | --- | --- | --- | --- | --- |
| GDM-1 (acute myeloid leukaemia, suspension) | 0.262 | 0.272 µM | 0.909 | > 5.12 µM | 0.72 | 5.08 µM |
| LU-139 (small cell lung carcinoma, suspension) | 0.44 | 0.817 µM | 0.923 | > 5.12 µM | 0.887 | > 20 µM |
| EW-3 (Ewing sarcoma, adherent) | 0.404 | 0.654 µM | 0.904 | > 5.12 µM | 0.907 | > 20 µM |
| OAW-42 (ovary, adherent) | 0.684 | 4.28 µM | 0.985 | > 5.12 µM | 0.985 | > 20 µM |
| EM-2 (chronic myeloid leukaemia, suspension) | 0.539 | 1.62 µM | 0.978 | > 5.12 µM | 0.894 | > 20 µM |
| CAL-148 (breast, suspension) | 0.492 | 1.19 µM | 0.981 | > 5.12 µM | 0.984 | > 20 µM |
| MOLP-8 (myeloma, suspension) | 0.185 | 0.15 µM | 0.868 | 4.37 µM | 0.817 | 10.7 µM |
| ChaGo-K-1 (non-small cell lung carcinoma, adherent) | 0.746 | 7.19 µM | 0.98 | > 5.12 µM | 0.968 | > 20 µM |
| NCI-H1963 (small cell lung carcinoma, suspension) | 0.81 | 8.93 µM |  |  | 0.957 | > 20 µM |
| SUP-B15 (lymphoblastic leukaemia, suspension) | 0.286 | 0.32 µM | 0.956 | > 5.12 µM | 0.946 | > 20 µM |
| OVCAR-5 (ovary, adherent) | 0.469 | 1.01 µM | 0.963 | > 5.12 µM | 0.974 | > 20 µM |
| HPAC (pancreas, adherent) | 0.682 | 5 µM | 0.969 | > 5.12 µM | 0.961 | > 20 µM |
| KARPAS-422 (B-cell lymphoma, suspension) | 0.471 | 1.04 µM | 0.978 | > 5.12 µM | 0.954 | > 20 µM |
| HCC1599 (breast, suspension) | 0.36 | 0.484 µM | 0.917 | > 5.12 µM | 0.948 | > 20 µM |
| CAKI-1 (kidney, adherent) | 0.574 | 2.21 µM | 0.964 | > 5.12 µM | 0.95 | > 20 µM |
| SUP-HD1 (Hodgkin lymphoma, suspension) | 0.329 | 0.427 µM | 0.988 | > 5.12 µM | 0.868 | 16.8 µM |
| A4-Fuk (B-cell lymphoma, suspension) | 0.838 | 14.4 µM | 0.979 | > 5.12 µM | 0.84 | 14.7 µM |
